Measurements reported in PMC4336329 (PLoS ONE, 2015).
Among all 310,000 compounds or so, about 2,200 (0.71%) showed an effect of 50% or more. The effect is printed as a negative number. The list shows a part of the results.

These compounds were tested against human ether-à-go-go-related gene (hERG) potassium channel (human, UniProt Q12809) (assay: primary screen, population patch clamp on CHO cells stably expressing hERG).
human ether-à-go-go-related gene (hERG) potassium channel, sequence (Q12809 whole entry, looked up): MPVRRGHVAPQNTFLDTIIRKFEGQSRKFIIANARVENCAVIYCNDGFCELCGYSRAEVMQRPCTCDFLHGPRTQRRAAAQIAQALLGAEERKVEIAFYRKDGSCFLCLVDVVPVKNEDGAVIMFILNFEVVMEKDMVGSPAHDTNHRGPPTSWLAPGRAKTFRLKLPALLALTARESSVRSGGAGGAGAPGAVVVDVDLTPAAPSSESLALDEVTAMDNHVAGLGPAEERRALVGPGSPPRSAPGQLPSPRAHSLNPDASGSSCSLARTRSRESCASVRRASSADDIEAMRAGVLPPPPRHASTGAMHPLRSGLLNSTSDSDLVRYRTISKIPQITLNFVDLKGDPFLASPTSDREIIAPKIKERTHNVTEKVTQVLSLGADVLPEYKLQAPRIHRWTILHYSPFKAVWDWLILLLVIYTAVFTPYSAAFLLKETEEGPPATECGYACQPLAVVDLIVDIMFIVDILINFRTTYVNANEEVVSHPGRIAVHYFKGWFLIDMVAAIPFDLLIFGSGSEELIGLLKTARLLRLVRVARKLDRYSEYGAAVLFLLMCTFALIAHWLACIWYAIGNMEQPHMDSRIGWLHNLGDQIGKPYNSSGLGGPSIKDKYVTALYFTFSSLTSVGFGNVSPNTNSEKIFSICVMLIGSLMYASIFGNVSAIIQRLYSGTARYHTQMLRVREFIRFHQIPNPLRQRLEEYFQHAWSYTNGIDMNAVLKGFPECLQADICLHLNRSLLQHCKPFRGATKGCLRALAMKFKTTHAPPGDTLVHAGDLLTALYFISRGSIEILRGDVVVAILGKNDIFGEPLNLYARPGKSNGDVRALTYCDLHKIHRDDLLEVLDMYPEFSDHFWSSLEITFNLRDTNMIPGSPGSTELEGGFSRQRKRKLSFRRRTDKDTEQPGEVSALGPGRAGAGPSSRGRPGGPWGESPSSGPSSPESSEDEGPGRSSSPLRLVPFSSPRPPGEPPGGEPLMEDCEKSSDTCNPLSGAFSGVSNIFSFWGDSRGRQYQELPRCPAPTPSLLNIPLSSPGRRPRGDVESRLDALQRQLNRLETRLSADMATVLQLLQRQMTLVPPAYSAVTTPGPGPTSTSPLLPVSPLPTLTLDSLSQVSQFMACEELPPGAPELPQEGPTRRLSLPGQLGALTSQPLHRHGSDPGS

Row | Compound | hERG current change (%, negative = inhibition) at 1uM
1 | CC(=O)Oc1ccc(C(=O)Nc2cc(NC(=O)c3ccc(OC(C)=O)cc3)cc(C(=O)NC(C)(C)C)c2)cc1 | 7.64%
2 | Brc1ccc2ncnc(NCc3cccnc3)c2c1 | 4.06%
3 | O=C(CC(C(=O)O)c1ccc(F)cc1)c1ccc(Cl)cc1 (stereo not shown) | 14.2%
4 | COc1ccc(NC2CCCN(C(=O)c3c(C)noc3C)C2)cc1 (stereo not shown) | 6.08%
5 | Cc1c(C(=O)C(=O)NCCCn2ccnc2)c2ccccc2n1C | -5.07%
6 | Cc1cc(C)nc([N-]S(=O)(=O)c2ccc(N)cc2)n1.[Na+] | 1.51%
7 | Cc1ccc(N(CC(=O)NCc2ccc3c(c2)OCO3)C(=O)c2csnn2)cc1 | 8.63%
8 | CCCCNc1nc(-c2ccccc2)c(C(=O)OCC)cc1C#N | 3.64%
9 | CCc1cc2ccc(OC)cc2nc1SCC(=O)NNC(=O)c1ccco1 | 9.99%
10 | COC(=O)C1=C(N)Oc2cc(C)[nH]c(=O)c2C1c1cc(OC)c(OC)c(OC)c1 (stereo not shown) | 4.65%
11 | CCn1c(SCC(=O)NC2CC2)nnc1-c1cccs1 | 3.36%
12 | COc1cccc(N=Nc2c(=O)[nH]n3c(=O)cc(C)[nH]c23)c1 | 21.2%
13 | COc1ccc(N2CC(C(=O)Nc3nnc(SCC(=O)N4CCCC4)s3)CC2=O)cc1 (stereo not shown) | 18%
14 | CCOC(=O)c1cc2c(=O)n3ccccc3nc2n(C(C)C)c1=NC(=O)c1ccco1 | -23.7%
15 | Clc1ccccc1-c1nnc2n1-c1ccccc1SC2 | 8.47%
16 | CCCC(=O)Nc1ccc(Br)c(Cl)c1 | 11.3%
17 | O=C(O)CCn1cc(/C=C\C(=O)c2ccc(Cl)cc2)c(-c2cccc(Br)c2)n1 | 13.4%
18 | COc1ccc(OCc2nn3c(-c4ccccn4)nnc3s2)cc1 | -7.56%
19 | CCOc1ccc(-n2c(C)cc(/C=N\NC(=O)CC(=O)NC3CCCCC3)c2C)cc1 | 7.94%
20 | COc1ccc(OC)c(-c2csc(NC(=O)CN3C(=O)NC4(CCCC4)C3=O)n2)c1 | 2.35%
21 | CCc1ccc(NC(=O)CN(c2cc(C)cc(C)c2)S(=O)(=O)c2c(C)[nH]c(=O)[nH]c2=O)cc1 | 5.29%
22 | Cc1cccc(N2CCN(CC(O)COc3ccc(Cl)cc3)CC2)c1 (stereo not shown) | -9.3%

Row | Compound | hERG current change (%, negative = inhibition) at 1uM
23 | O=C(CCSCCc1ccccn1)Nc1cc(F)ccc1F | 6.43%
24 | N#Cc1cccc(C(=O)N(CCc2ccccc2)Cc2cccs2)c1 | -43.9%
25 | Cc1ccc(CN2C3CCCC2CC(NC(=O)Nc2cccc(F)c2)C3)cc1 (stereo not shown) | -85.2%
26 | O=C(Cc1ccccc1)NC(Nc1ccccc1)C(Cl)(Cl)Cl (stereo not shown) | 8.36%
27 | COc1ccc(N2CCN(C(CNC(=O)C(C)C)c3ccc4c(c3)OCO4)CC2)cc1 (stereo not shown) | 9.17%
28 | COc1cccc(N2CCN(c3ccc(N4C(=O)CCC4=O)cc3[N+](=O)[O-])CC2)c1 | 13.4%
29 | COc1ccccc1CN1CCNC(=O)C1CC(=O)NCc1c(C)n[nH]c1C (stereo not shown) | 11.4%
30 | Cc1cc(N2CCN(C3CCCCC3)CC2)n2nc(C)nc2n1 | -14.2%
31 | Cc1cc(NS(=O)(=O)c2ccc(NC(=O)c3cnc(Cl)c(Cl)c3)cc2)nc(C)n1 | 4.39%
32 | S=C(Nc1cccc(Cl)c1)N1CCN(c2ccccn2)CC1 | 17.4%
33 | CN(C)CCCNS(=O)(=O)c1ccc(N2CCN(Cc3ccc4c(c3)OCO4)CC2)c([N+](=O)[O-])c1 | 14.4%
34 | CNC(=O)Oc1ccc(N(C)C)cc1C(C)C | -0.707%
35 | COc1cc(OC)cc(C(=O)N[C@H](C(=O)Nc2nc(-c3cc(OC)ccc3OC)cs2)C(C)C)c1 | 10.2%
36 | CC(C)(C)c1ccc(-c2cc(C(=O)NNC(=O)Nc3ccccc3)c3ccccc3n2)cc1 | 5.51%
37 | COc1ccc(CCNC(=O)c2nnc(Cc3ccc(Cl)cc3)o2)cc1OC | 9.88%
38 | Cc1ccc(S(=O)(=O)Nc2cccc(C(=O)NCCCn3ccnc3)c2)cc1F | 1.99%
39 | CCOc1ncccc1C(=O)NCc1ccc(OC)c(OC)c1 | -5.01%
40 | COc1c(F)c(F)c(-c2csc(N)n2)c(F)c1F | 9.51%
41 | C=CCOc1ccc(Br)cc1/C=C1\NC(=S)N(C(C)=O)C1=O | 14.5%
42 | Cc1cc(C)c(S(=O)(=O)N2CCCC(C(=O)NCc3cccnc3)C2)c(C)c1 (stereo not shown) | 8.52%
43 | O=C(Oc1ccc(-c2cnc3ccccc3n2)cc1)c1cccc([N+](=O)[O-])c1 | -8.4%
44 | CC(=O)c1ccc(S(=O)(=O)Nc2ccc(-c3ccc4nnc(C)n4n3)cc2)cc1 | 20.8%

Row | Compound | hERG current change (%, negative = inhibition) at 1uM
45 | O=C(Nc1ncccn1)c1ccc([N+](=O)[O-])cc1Cl | 11.7%
46 | CC(C)C(NC(=O)c1cccs1)C(=O)NC1CCCCC1 (stereo not shown) | 18.3%
47 | FC(F)(F)c1cccc(N2CCN(CC3CC4C=CC3C4)CC2)c1 (stereo not shown) | -5.34%
48 | Cl.O=c1oc2ccccc2cc1C1=Nn2c(nnc2-c2cccnc2)SC1 | -5.24%
49 | CCCCn1c(N)c(N(CCOC)C(=O)COC(=O)COc2c(C)cc(C)cc2C)c(=O)[nH]c1=O | 4.18%
50 | Oc1ccccc1-c1nc(NCc2ccccc2)c2ccccc2n1 | 7.24%
51 | O=C(COc1ccccc1[N+](=O)[O-])Nc1cccc(C(=O)Nc2ccccc2C(=O)O)c1 | 15.4%
52 | CCCn1c(N)c(C(=O)CSc2nnc(C)n2Cc2ccccc2)c(=O)n(C)c1=O | 4.72%
53 | CCN(CC)C(=O)c1ccccc1NC(=O)c1ccccc1SC | -2.03%
54 | O=C(NCc1ccccc1F)c1cc(=O)[nH]c2ccccc12 | 12.7%
55 | COc1cc(/C=N/NC(=S)NCc2ccccc2)ccc1OCC#N | 0.937%
56 | CCN(CC)C(=O)Oc1ccc2ccccc2c1Cl | 6.86%
57 | C=CCN(Cc1nc(-c2ccccc2)no1)C(=O)c1ccco1 | 9.84%
58 | Cn1cccc1/C=N/NC(=O)c1ccccn1 | 6.14%
59 | COC(=O)Cc1ccc(NC(=S)N2CCCC(C)C2)cc1 (stereo not shown) | 18.5%
60 | Cc1cc(-c2nnc(CCC(=O)N(CC3CCC3)CC3CCCO3)o2)no1 (stereo not shown) | 5.71%
61 | COc1cc2ccccc2cc1C(=O)N(CCN(C)C)c1nc2ccc(Br)cc2s1.Cl | 11.9%
62 | C=CCn1c(SC(C)C(N)=O)nc2sc(CC)cc2c1=O (stereo not shown) | 5.7%
63 | COc1ccc(OCc2cc(C(=O)NCC3(C)COC3)no2)c(Cl)c1 | 10.4%
64 | CNC(=O)COC(=O)/C=C/c1cccc(F)c1 | 13.9%
65 | CC1CCC(NC(=O)N(CCCl)N=O)CC1 (stereo not shown) | 12.1%
66 | CCN(CC)S(=O)(=O)c1ccc(N2CCCC2)c(C(=O)OCC(=O)/C(C#N)=C(\C)N)c1 | 12.1%

Row | Compound | hERG current change (%, negative = inhibition) at 1uM
67 | CC(NC(=O)/C=C/c1ccc(Br)cc1)c1ccccc1 (stereo not shown) | 12.2%
68 | O=C(Nc1ccccn1)NC1CCS(=O)(=O)C1 (stereo not shown) | -10.3%
69 | CCN1CCCc2cc(CN(CCN3CCOCC3)C(=S)Nc3cccc(OC)c3)ccc21 | 11.8%
70 | C=CCn1c(=O)c2c3c(sc2n2c(Nc4ccccc4)nnc12)CCCC3 | 16%
71 | COC(=O)c1sc(SC)nc1N | 14.7%
72 | O=C(CCC(=O)c1ccc(Br)cc1)Nc1cccnc1 | 9.29%
73 | COc1ccc(N2CCN(C(=O)CNC(=O)Cc3ccccc3)CC2)cc1 | -1.07%
74 | Cc1onc(-c2ccccc2Cl)c1C(=O)Nc1ccc(Br)cc1 | 20.8%
75 | CCOc1ccccc1CNC(=O)C(C)n1nc(C)c2c(C)n(-c3ccccc3)nc2c1=O (stereo not shown) | -12.9%
76 | Cn1c(SCC(=O)Nc2cccc(S(=O)(=O)NC3=NCCCCC3)c2)nnc1-c1ccccc1 | 9.91%
77 | O=C1c2cc(Cl)ccc2OC2(CCNCC2)C12CC(c1ccccc1)=NO2 (stereo not shown) | 10.1%
78 | CCCCNc1nc2cccnc2s1 | 14.9%
79 | CC(=O)Nc1nc(C)nc(-c2ccccc2OC(C)=O)n1 | 1.59%
80 | COc1cccc(NC(=S)/C(=C(\[O-])c2ccc([N+](=O)[O-])cc2)[n+]2ccccc2)c1 | 17.7%
81 | CCCCCC(=O)N1CCN(CCN=CC2=C(O)CC(c3cccs3)CC2=O)CC1 (stereo not shown) | -109%
82 | CCOC(=O)c1c(NC(=O)Nc2ccc(C)cc2)sc2c1CCN(C)C2 | 9.62%
83 | COc1cccc(NC(=O)CN(C)C(=O)c2cccc(NS(=O)(=O)c3ccccc3)c2)c1 | 4.21%
84 | CCOC(=O)C1CCCN(C2CC(=O)N(c3ccc(C(C)C)cc3)C2=O)C1 (stereo not shown) | 4.04%
85 | COc1ccc(NC(=O)c2ccccc2C(=O)N2CCCCC2)cc1 | 5.4%
86 | O=S(=O)(Cc1noc(-c2ccccc2Cl)n1)c1ccccn1 | 9.02%
87 | Cc1ccc(Cl)cc1NC(=S)N(CCN(C)C)C(C)c1ccccn1 (stereo not shown) | 3.51%
88 | CC(=O)c1sc(N/N=C\c2ccc(Br)cc2)nc1C | 10.8%
